Source: PubChem BioAssay AID686979 (National Center for Advancing Translational Sciences (NCATS), 2013)
The whole screen tested about 420,000 compounds, of which about 50,000 (12%) were called active. This list was built around the results that the source calls inconclusive (neither active nor inactive); the mix of calls is not that of the screen. The call rests on the fitted dose curve; in most records, active means well fitted inhibition curve with a large enough effect; inconclusive means small, poorly fitted or top-dose-only effect; inactive means flat fitted curve, though single readings scatter. No potency is given beside an inconclusive call; the fits are too rough.

Assay: qHTS for Inhibitors of human tyrosyl-DNA phosphodiesterase 1 (TDP1): qHTS in cells in presence of CPT; further: nearly all actives have a fitted effect of over 55% in size
Conditions: chicken DT40 Tdp1-/-;hTDP1 cells + 20 nM CPT, ATP luminescence, 48 h; activity change, negative = growth inhibition: at 46.2 µM (top of the series)
Summary of the method: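 Cell growth measured by CellTiter-Glo luminescence after a minimum 48 h, 37 C compound exposure with 20 nM CPT in Tdp1-knockout DT40 cells stably expressing hTDP1, seeded 400/well; qHTS titration format.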
On the % scale 0 is the no-effect control and ±100 the full control effect; potency means the concentration at half of the fitted maximal effect; tags describe the fitted curve by direction and shape.

Row | SMILES | Potency | activity change, negative = growth inhibition
1 | COc1ccccc1NC(=O)c1c(C)cc(C)nc1SCC(=O)Nc1cccc(C)c1 | inconclusive [inhibitor, single point] | 
2 | COc1cccc(-c2cc(C(=O)Nc3ccc([N+](=O)[O-])cn3)c3ccccc3n2)c1 | inconclusive [inhibitor, partial curve] | 
3 | CCOC(=O)Nc1c(Cl)n(C)c(=O)n(C)c1=O | inconclusive [inhibitor, single point] | 
4 | O=C(Nc1ccc(F)c(Cl)c1)C1Cc2ccccc2CN1S(=O)(=O)c1ccc(F)cc1 (configuration not stated) | inconclusive [inhibitor, single point] | 
5 | C#CCSc1nc(-c2ccccc2)cc(C(F)(F)F)c1C#N |  | inactive: 2.78%
6 | CCCN(CC(=O)Nc1ccccc1C)C(=O)c1cccc(-n2cnnn2)c1 |  | inactive: 11.7%
7 | CC(Oc1ccc(F)cc1)C(=O)Nc1cccc(S(=O)(=O)N(C)c2ccccc2)c1 (configuration not stated) | inconclusive [inhibitor, single point] | 
8 | CC1CCCCN1C(=O)Cn1c(=O)n(C2CCCCC2)c(=O)c2ccccc21 (configuration not stated) | inconclusive [inhibitor, partial curve] | 
9 | CCCCn1c(O)c(N=NC(=O)c2ccco2)c2ccccc21 | inconclusive [inhibitor, single point] | 
10 | O=C(Nc1nccs1)C1CCN(S(=O)(=O)c2c(Cl)cccc2Cl)CC1 |  | inactive: -26.3%
11 | CCC(NC(=O)C1(C)CC1(Br)Br)c1ccc(C)cc1 (configuration not stated) | inconclusive [inhibitor, single point] | 
12 | CN(Cc1cccnc1)C(=O)c1cc(COc2ccc3c(c2)CCCC3)on1 | inconclusive [inhibitor, single point] | 
13 | Cc1c(CCC(=O)NCCCn2ccnc2)c(=O)oc2c(C)c3occ(C(C)(C)C)c3cc12 | inconclusive [inhibitor, single point] | 
14 | O=C(Nc1ccc(S(=O)(=O)N2CCOCC2)cc1)c1ccc(=O)[nH]c1 |  | inactive: 0.151%
15 | CCOC(=O)Cn1c(=NC(=O)CSC(C)=O)sc2ccccc21 | inconclusive [inhibitor, single point] | 
16 | CN(C)c1ccc(C(CNC(=O)c2cccs2)N(C)C)cc1 (configuration not stated) | inconclusive [inhibitor, partial curve] | 
17 | NS(=O)(=O)c1cccc(NC(=O)CSc2n[nH]c(-c3ccccc3Br)n2)c1 |  | inactive: -24.2%
18 | COC(=O)Oc1ccc(/C=N/NC(=O)CN(c2ccccc2Br)S(C)(=O)=O)cc1OC |  | inactive: 27.6%
19 | CN1C(=O)/C(=C/c2cccc([N+](=O)[O-])c2)C(=O)N1c1ccccc1 | inconclusive [inhibitor, single point] | 
20 | N/C(=N\OC(=O)c1ccc(=O)n(Cc2ccccc2)c1)c1ccccn1 | inconclusive [inhibitor, partial curve] | 
21 | COc1cc(OC)c(NC(=O)c2cnn(-c3cccc(Cl)c3C)c2C2CCN(C(=O)OC(C)(C)C)CC2)cc1Cl |  | inactive: -27.7%

Row | SMILES | Potency | activity change, negative = growth inhibition
22 | C[C@@]12CCC3[C@@](CCC4[C@@]3(C)CCC[C@@]4(C)C(=O)NC3CCCCC3)(CC1=O)C2 (some centres not stated) | active: 18.4 µM | 
23 | COc1cccc(C(C(=O)NCc2ccccc2)N2CCN(c3cccc(C)c3C)CC2)c1OC (configuration not stated) | active: 18.4 µM | 
24 | O=S1(=O)N[C@@H](Cc2ccccc2)COc2ccc(Cl)cc21 | inconclusive [inhibitor, single point] | 
25 | O=C(Nc1nc(-c2ccccc2)cs1)C1CCCN(S(=O)(=O)c2cccc([N+](=O)[O-])c2)C1 (configuration not stated) | active: 20.6 µM | 
26 | CCOc1ccc(C2=Nc3ccc(Br)cc3C(c3ccc(N4CCOCC4)cc3)=NN2)cc1 | inconclusive [inhibitor, partial curve, poor fit] | 
27 | O=C(/C=C/c1c(F)cccc1Cl)c1ccc(O)cc1 | inconclusive [inhibitor, single point] | 
28 | CC(C)(C)C(=O)c1c(N)[nH]c(C(=O)c2ccccc2)c1-c1ccc(Cl)cc1 | inconclusive [inhibitor, single point] | 
29 | CCCCn1c(SCC(=O)Nc2cccc(OC)c2)nc2ccsc2c1=O | inconclusive [inhibitor, single point] | 
30 | Cc1ccc(NC(=O)c2cn(-c3ccccc3)nc2-c2ccccc2)cc1 | inconclusive [inhibitor, single point] | 
31 | Cc1cc(C)c(C)c(S(=O)(=O)NCC(=O)Nc2ccc(F)cc2)c1C | inconclusive [inhibitor, single point] | 
32 | N=C(N)SCc1nc2ccccn2c1Br | inconclusive [inhibitor, single point] | 
33 | CN(C(=O)c1cccc(NC(=O)Cc2ccc(NC(=O)C3CCN(C(=O)CCc4ccccc4)CC3)cc2)c1)C1CCC1 | active: 13 µM | 
34 | C/C(N)=C(/C#N)C(=O)COC(=O)C1CCC(C(C)(C)C)CC1 (configuration not stated) |  | inactive: -15.4%
35 | CCC(C(=O)Nc1cc(Cl)c(OC)cc1OC)c1ccccc1 (configuration not stated) | inconclusive [inhibitor, single point] | 
36 | CC(=O)c1ccc(N2CCN(S(=O)(=O)c3csc(C(N)=O)c3)CC2)cc1 |  | inactive: -1.82%
37 | CC(C)(C)C(=O)Nc1ccc(C(=O)COC(=O)c2ccccn2)cc1 |  | inactive: -9.48%
38 | O=C1c2ccccc2-c2onc3c(N4CCN(CCO)CC4)cc(N4CCN(C(=O)c5ccco5)CC4)c1c23 | inconclusive [inhibitor, single point] | 
39 | CCOC(=O)N1CCN(C(=O)c2ccc3c(=O)n(Cc4ccc(OC)cc4)c(=S)[nH]c3c2)CC1 | inconclusive [inhibitor, single point] | 
40 | COc1cc(C(=O)N(Cc2cccnc2)Cc2cc3cc4c(cc3[nH]c2=O)OCCO4)cc(OC)c1OC | inconclusive [inhibitor, single point] | 
41 | CCN(CC)CCCN(C(=O)c1ccc(OC)cc1)c1nc(-c2ccc(OC)cc2)cs1 | inconclusive [inhibitor, single point] | 
42 | O=C(Nc1ccc(Oc2ccccc2)nc1)C1CCN(Cc2ccccc2)CC1 | inconclusive [inhibitor, partial curve, poor fit] | 
